This note sets out measurements from PubChem BioAssay (NCI).

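Cultured in 96-well plates, cells were exposed to test compound for 48 hours across five concentrations. GI50: concentration for 50% inhibition of growth. TGI: concentration producing complete growth inhibition.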

This test has as its system NCI-H322M lung. As to the kind of experiment: growth of human tumour cells (NCI), 48 h.

On to `COc1ccc(/C=C/C(=O)c2ccc(S(=O)(=O)NCCNc3nc(Nc4ccc(F)cc4)nc(N(C)C)n3)cc2)cc1`, for which the GI50 is 10.2 µM and the TGI was > 100 µM.
